Results from patent publication US10947289B2, “Glyco-modified atrial natriuretic peptide” (priority 2013, dated 2021).
pEC50: −log10 of the molar value. At least one structure is not confirmed: it was looked up by name or label, or the drawing left a doubt.

Target: T1, human GC-A (Homo sapiens, UniProt P16066)
T1 construct: expressed in transfected cells; host or cells: CHO cells
T1 sequence (P16066 33-1061): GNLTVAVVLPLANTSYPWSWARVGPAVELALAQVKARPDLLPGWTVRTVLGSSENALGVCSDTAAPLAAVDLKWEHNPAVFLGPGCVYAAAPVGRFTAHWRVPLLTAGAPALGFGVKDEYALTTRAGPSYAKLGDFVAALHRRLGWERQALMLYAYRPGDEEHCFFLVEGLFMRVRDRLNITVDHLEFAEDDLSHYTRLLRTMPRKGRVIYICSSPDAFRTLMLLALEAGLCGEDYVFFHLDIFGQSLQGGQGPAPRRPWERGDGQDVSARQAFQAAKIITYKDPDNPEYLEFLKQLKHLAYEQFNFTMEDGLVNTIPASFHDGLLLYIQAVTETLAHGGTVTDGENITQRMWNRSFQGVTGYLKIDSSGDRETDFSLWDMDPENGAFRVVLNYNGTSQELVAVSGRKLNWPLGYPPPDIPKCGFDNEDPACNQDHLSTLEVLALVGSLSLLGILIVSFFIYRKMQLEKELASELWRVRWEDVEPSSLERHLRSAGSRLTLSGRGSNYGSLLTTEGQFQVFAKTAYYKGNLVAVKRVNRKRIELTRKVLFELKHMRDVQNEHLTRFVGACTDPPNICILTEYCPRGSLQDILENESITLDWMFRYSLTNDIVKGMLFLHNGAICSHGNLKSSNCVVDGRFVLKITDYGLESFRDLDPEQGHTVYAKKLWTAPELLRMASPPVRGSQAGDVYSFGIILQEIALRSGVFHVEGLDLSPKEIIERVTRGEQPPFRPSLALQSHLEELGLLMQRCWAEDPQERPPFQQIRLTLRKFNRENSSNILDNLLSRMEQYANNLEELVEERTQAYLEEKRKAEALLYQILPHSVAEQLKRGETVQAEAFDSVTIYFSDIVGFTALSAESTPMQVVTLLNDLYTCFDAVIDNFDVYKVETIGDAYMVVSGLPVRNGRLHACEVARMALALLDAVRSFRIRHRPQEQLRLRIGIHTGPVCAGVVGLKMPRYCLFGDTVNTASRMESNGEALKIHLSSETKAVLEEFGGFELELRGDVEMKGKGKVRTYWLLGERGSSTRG
Assay: cGMP elevating activity in CHO/human GC-A cells (Test Example 1)
Assay type: cell-based
Details: for Emax: maximum T/C in range 0.01-100 nM, solvent only = 0, 1 nM ANP = 1
Method: The cGMP elevating activity of each modified peptide prepared in Example 2 was measured by the following method:
CHO/human GC-A cells, which are CHO cells constitutively expressing human GC-A, were suspended at 2×10^5 cells/ml in α-MEM, 10% FBS, and 1% penicillin-streptomycin, inoculated at 20 μl/well (4×10^3 cells/well) onto a 384-well plate (Corning, 3826), and cultured overnight in a CO2 incubator. On the next day, the medium was removed from this plate, and then, 1.6 mM IBMX/KRB buffer was added thereto at 10 μl/well. The mixture was stirred on a plate shaker and then incubated at room temperature for 10 minutes. […] The mixture was stirred on a plate shaker and then incubated for 15 minutes in a CO2 incubator. Thereafter, a lysis buffer (50 mM phosphate buffer, pH 7.0, and 1% Triton X-100) was added thereto at 5 μl/well. The cells were lysed by stirring for 10 minutes on a plate shaker. Subsequently, the cGMP levels in the cell lysates were measured by use of a cGMP kit (manufactured by Cisbio Bioassays). Specifically, to a 384-well plate (Greiner, 784076), 5 μl/well of a diluent attached to the kit, 5 μl/well of the cell lysate, 5 μl/well of cGMP-d2, and 5 μl/well of anti cGMP-Cryptate were added. The mixture was stirred on a plate shaker and then incubated overnight at 4° C. in the dark, followed by the measurement of homogeneous time-resolved fluorescence using RubyStar (manufactured by BMG LABTECH JAPAN Ltd.). The activity value (T/C) of the test substance at each concentration was calculated when the activity value of a well supplemented with only a solvent was defined as 0 and the activity value of a well supplemented with 1 nM ANP was defined as 1.

Row | Compound | Emax | pEC50 (CHO/human GC-A cells, concentration at T/C=0.5, 15 minutes incubation)
1 | CC[C@H](C)[C@@H]1NC(=O)[C@H](CCCNC(=N)N)NC(=O)[C@H](CC(=O)O)NC(=O)[C@H](CCSC)NC(=O)[C@H](CCCNC(=N)N)NC(=O)CNC(=O)CNC(=O)[C@H](Cc2ccccc2)NC(=O)[C@@H](NC(=O)[C@H](CO)NC(=O)[C@H](CO)NC(=O)[C@H](CCCNC(=N)N)NC(=O)[C@H](CCCNC(=N)N)NC(=O)[C@H](CC(C)C)NC(=O)[C@@H](N)CC(=O)N[C@@H]2O[C@H](CO)[C@@H](O[C@@H]3O[C@H](CO)[C@@H](O[C@@H]4O[C@H](CO[C@H]5O[C@H](CO)[C@@H](O)[C@H](O)[C@@H]5O[C@@H]5O[C@H](CO)[C@@H](O[C@@H]6O[C@H](CO[C@]7(C(=O)O)C[C@H](O)[C@@H](NC(C)=O)[C@H]([C@H](O)[C@H](O)CO)O7)[C@H](O)[C@H](O)[C@H]6O)[C@H](O)[C@H]5NC(C)=O)[C@@H](O)[C@H](O[C@H]5O[C@H](CO)[C@@H](O)[C@H](O)[C@@H]5O[C@@H]5O[C@H](CO)[C@@H](O[C@@H]6O[C@H](CO[C@]7(C(=O)O)C[C@H](O)[C@@H](NC(C)=O)[C@H]([C@H](O)[C@H](O)CO)O7)[C@H](O)[C@H](O)[C@H]6O)[C@H](O)[C@H]5NC(C)=O)[C@@H]4O)[C@H](O)[C@H]3NC(C)=O)[C@H](O)[C@H]2NC(C)=O)CSSC[C@@H](C(=O)N[C@@H](CC(N)=O)C(=O)N[C@@H](CO)C(=O)N[C@@H](Cc2ccccc2)C(=O)N[C@@H](CCCNC(=N)N)C(=O)N[C@@H](Cc2ccc(O)cc2)C(=O)O)NC(=O)CNC(=O)[C@H](CC(C)C)NC(=O)CNC(=O)[C@H](CO)NC(=O)[C@H](CCC(N)=O)NC(=O)[C@H](C)NC(=O)CNC1=O [Compound 2-4, (SG-)Asn-hANP(2-28)] | 1.04 | –
2 | CC[C@H](C)[C@@H]1NC(=O)[C@H](CCCNC(=N)N)NC(=O)[C@H](CC(=O)O)NC(=O)[C@H](CCSC)NC(=O)[C@H](CCCNC(=N)N)NC(=O)CNC(=O)CNC(=O)[C@H](Cc2ccccc2)NC(=O)[C@@H](NC(=O)[C@H](CO)NC(=O)[C@H](CO)NC(=O)[C@H](CCCNC(=N)N)NC(=O)[C@H](CCCNC(=N)N)NC(=O)[C@H](CC(C)C)NC(=O)[C@@H](N)CO)CSSC[C@@H](C(=O)N[C@@H](CC(N)=O)C(=O)N[C@@H](CO)C(=O)N[C@@H](Cc2ccccc2)C(=O)N[C@@H](CCCNC(=N)N)C(=O)N[C@@H](Cc2ccc(O)c(-n3[nH]c(=O)n(-c4ccc(CCO[C@@H]5O[C@H](CO)[C@@H](O[C@@H]6O[C@H](CO)[C@@H](O[C@@H]7O[C@H](CO[C@H]8O[C@H](CO)[C@@H](O)[C@H](O)[C@@H]8O[C@@H]8O[C@H](CO)[C@@H](O[C@@H]9O[C@H](COC%10(C(=O)O)C[C@H](O)[C@@H](NC(C)=O)[C@H]([C@H](O)[C@H](O)CO)O%10)[C@H](O)[C@H](O)[C@H]9O)[C@H](O)[C@H]8NC(C)=O)[C@@H](O)[C@H](O[C@H]8O[C@H](CO)[C@@H](O)[C@H](O)[C@@H]8O[C@@H]8O[C@H](CO)[C@@H](O[C@@H]9O[C@H](COC%10(C(=O)O)C[C@H](O)[C@@H](NC(C)=O)[C@H]([C@H](O)[C@H](O)CO)O%10)[C@H](O)[C@H](O)[C@H]9O)[C@H](O)[C@H]8NC(C)=O)[C@@H]7O)[C@H](O)[C@H]6NC(C)=O)[C@H](O)[C@H]5NC(C)=O)cc4)c3=O)c2)C(=O)O)NC(=O)CNC(=O)[C@H](CC(C)C)NC(=O)CNC(=O)[C@H](CO)NC(=O)[C@H](CCC(N)=O)NC(=O)[C@H](C)NC(=O)CNC1=O (stereo partly shown) [Compound 2-6, hANP(1-27)-(SG-)Tyr] | 1.00 | 8.77
3 | CC[C@H](C)[C@@H]1NC(=O)[C@H](CCCNC(=N)N)NC(=O)[C@H](CC(=O)O)NC(=O)[C@H](CCSC)NC(=O)[C@H](CCCNC(=N)N)NC(=O)CNC(=O)CNC(=O)[C@H](Cc2ccccc2)NC(=O)[C@@H](NC(=O)[C@H](CO)NC(=O)[C@H](CO)NC(=O)[C@H](CCCNC(=N)N)NC(=O)[C@H](CCCNC(=N)N)NC(=O)[C@H](CC(C)C)NC(=O)[C@H](CO)NC(=O)CNC(=O)[C@H](CO)NC(=O)CNC(=O)[C@H](CO)NC(=O)CNC(=O)[C@H](CO)NC(=O)[C@H](CC(=O)N[C@@H]2O[C@H](CO)[C@@H](O[C@@H]3O[C@H](CO)[C@@H](O[C@@H]4O[C@H](CO[C@H]5O[C@H](CO)[C@@H](O)[C@H](O)[C@@H]5O[C@@H]5O[C@H](CO)[C@@H](O[C@@H]6O[C@H](CO[C@]7(C(=O)O)C[C@H](O)[C@@H](NC(C)=O)[C@H]([C@H](O)[C@H](O)CO)O7)[C@H](O)[C@H](O)[C@H]6O)[C@H](O)[C@H]5NC(C)=O)[C@@H](O)[C@H](O[C@H]5O[C@H](CO)[C@@H](O)[C@H](O)[C@@H]5O[C@@H]5O[C@H](CO)[C@@H](O[C@@H]6O[C@H](CO[C@]7(C(=O)O)C[C@H](O)[C@@H](NC(C)=O)[C@H]([C@H](O)[C@H](O)CO)O7)[C@H](O)[C@H](O)[C@H]6O)[C@H](O)[C@H]5NC(C)=O)[C@@H]4O)[C@H](O)[C@H]3NC(C)=O)[C@H](O)[C@H]2NC(C)=O)NC(=O)CO[C@@H]2O[C@H](CO)[C@@H](O[C@@H]3O[C@H](CO)[C@@H](O[C@@H]4O[C@H](CO[C@H]5O[C@H](CO)[C@@H](O)[C@H](O)[C@@H]5O[C@@H]5O[C@H](CO)[C@@H](O[C@@H]6O[C@H](CO[C@]7(C(=O)O)C[C@H](O)[C@@H](NC(C)=O)[C@H]([C@H](O)[C@H](O)CO)O7)[C@H](O)[C@H](O)[C@H]6O)[C@H](O)[C@H]5NC(C)=O)[C@@H](O)[C@H](O[C@H]5O[C@H](CO)[C@@H](O)[C@H](O)[C@@H]5O[C@@H]5O[C@H](CO)[C@@H](O[C@@H]6O[C@H](CO[C@]7(C(=O)O)C[C@H](O)[C@@H](NC(C)=O)[C@H]([C@H](O)[C@H](O)CO)O7)[C@H](O)[C@H](O)[C@H]6O)[C@H](O)[C@H]5NC(C)=O)[C@@H]4O)[C@H](O)[C@H]3NC(C)=O)[C@H](O)[C@H]2NC(C)=O)CSSC[C@@H](C(=O)N[C@@H](CC(N)=O)C(=O)N[C@@H](CO)C(=O)N[C@@H](Cc2ccccc2)C(=O)N[C@@H](CCCNC(=N)N)C(=O)N[C@@H](Cc2ccc(O)cc2)C(=O)O)NC(=O)CNC(=O)[C@H](CC(C)C)NC(=O)CNC(=O)[C@H](CO)NC(=O)[C@H](CCC(N)=O)NC(=O)[C@H](C)NC(=O)CNC1=O [Compound 2-36, SG-(SG-)Asn-(Ser-Gly)3-hANP(1-28)] | 1.00 | –
